Results are given in words; binding and its absence hold for the method and conditions named. Binding seen in cells or lysates may run through a third protein. Some entries that bind do so weakly or less than the wild type. For some assays here: Where a sequence is shown, tags or fusion partners need not be part of it.
What was measured:
[1] = molecular target: T1, human PKP4 N-terminally tagged with EGFP (EGFP-PKP4-WT) (human) (UniProt Q99569); test: co-IP; GFP-Trap Agarose on lysates of PKP4-KO + GFP-PKP4 (Rescue) keratinocytes, WT + GFP cells as control; IP buffer 20 mM Tris-HCl pH 7.5, 137 mM NaCl, 2 mM EDTA, 10% glycerol, 1% NP-40; 1 h at 4 °C; western blot
T1 sequence: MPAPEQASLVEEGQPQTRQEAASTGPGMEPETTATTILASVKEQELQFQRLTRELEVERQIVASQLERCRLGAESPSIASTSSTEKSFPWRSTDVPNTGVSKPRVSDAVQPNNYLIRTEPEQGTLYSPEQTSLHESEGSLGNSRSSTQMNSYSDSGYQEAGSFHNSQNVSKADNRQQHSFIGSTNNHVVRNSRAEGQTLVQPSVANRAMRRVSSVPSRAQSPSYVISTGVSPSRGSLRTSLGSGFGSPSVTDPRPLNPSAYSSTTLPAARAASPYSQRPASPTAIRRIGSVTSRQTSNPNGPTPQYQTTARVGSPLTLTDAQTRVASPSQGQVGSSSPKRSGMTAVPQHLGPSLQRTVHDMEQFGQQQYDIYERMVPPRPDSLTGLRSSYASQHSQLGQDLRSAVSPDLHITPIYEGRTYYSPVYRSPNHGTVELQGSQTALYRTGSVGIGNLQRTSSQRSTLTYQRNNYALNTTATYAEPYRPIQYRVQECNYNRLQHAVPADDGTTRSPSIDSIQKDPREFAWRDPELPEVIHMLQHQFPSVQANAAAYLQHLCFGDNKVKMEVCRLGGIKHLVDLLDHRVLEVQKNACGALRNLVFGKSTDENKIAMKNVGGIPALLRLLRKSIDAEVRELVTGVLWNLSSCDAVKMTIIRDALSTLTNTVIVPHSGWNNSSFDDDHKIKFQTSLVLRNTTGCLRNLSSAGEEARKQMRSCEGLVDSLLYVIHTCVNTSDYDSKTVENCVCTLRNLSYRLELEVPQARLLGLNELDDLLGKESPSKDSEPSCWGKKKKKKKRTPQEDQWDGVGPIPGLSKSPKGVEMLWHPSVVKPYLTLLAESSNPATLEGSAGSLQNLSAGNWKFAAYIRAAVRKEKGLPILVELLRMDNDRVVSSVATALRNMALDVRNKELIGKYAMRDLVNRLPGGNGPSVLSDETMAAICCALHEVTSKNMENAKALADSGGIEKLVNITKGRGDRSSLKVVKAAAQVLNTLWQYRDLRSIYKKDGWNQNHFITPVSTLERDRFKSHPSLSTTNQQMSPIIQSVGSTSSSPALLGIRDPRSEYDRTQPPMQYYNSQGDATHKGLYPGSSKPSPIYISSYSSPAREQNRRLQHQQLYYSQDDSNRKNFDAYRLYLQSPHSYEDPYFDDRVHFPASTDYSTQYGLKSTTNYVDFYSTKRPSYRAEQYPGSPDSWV

[2] = molecular target: T2, Plakophilin 4 (PKP4), endogenous in mouse keratinocytes (mouse (endogenous in mouse keratinocytes)) (UniProt Q68FH0); test: co-IP; anti-PKP4 antibody and Protein A agarose on lysates of WT keratinocytes, PKP4-KO cells in parallel as control; IP buffer 20 mM Tris-HCl pH 7.5, 137 mM NaCl, 2 mM EDTA, 10% glycerol, 1% NP-40; overnight at 4 °C; western blot
T2 sequence: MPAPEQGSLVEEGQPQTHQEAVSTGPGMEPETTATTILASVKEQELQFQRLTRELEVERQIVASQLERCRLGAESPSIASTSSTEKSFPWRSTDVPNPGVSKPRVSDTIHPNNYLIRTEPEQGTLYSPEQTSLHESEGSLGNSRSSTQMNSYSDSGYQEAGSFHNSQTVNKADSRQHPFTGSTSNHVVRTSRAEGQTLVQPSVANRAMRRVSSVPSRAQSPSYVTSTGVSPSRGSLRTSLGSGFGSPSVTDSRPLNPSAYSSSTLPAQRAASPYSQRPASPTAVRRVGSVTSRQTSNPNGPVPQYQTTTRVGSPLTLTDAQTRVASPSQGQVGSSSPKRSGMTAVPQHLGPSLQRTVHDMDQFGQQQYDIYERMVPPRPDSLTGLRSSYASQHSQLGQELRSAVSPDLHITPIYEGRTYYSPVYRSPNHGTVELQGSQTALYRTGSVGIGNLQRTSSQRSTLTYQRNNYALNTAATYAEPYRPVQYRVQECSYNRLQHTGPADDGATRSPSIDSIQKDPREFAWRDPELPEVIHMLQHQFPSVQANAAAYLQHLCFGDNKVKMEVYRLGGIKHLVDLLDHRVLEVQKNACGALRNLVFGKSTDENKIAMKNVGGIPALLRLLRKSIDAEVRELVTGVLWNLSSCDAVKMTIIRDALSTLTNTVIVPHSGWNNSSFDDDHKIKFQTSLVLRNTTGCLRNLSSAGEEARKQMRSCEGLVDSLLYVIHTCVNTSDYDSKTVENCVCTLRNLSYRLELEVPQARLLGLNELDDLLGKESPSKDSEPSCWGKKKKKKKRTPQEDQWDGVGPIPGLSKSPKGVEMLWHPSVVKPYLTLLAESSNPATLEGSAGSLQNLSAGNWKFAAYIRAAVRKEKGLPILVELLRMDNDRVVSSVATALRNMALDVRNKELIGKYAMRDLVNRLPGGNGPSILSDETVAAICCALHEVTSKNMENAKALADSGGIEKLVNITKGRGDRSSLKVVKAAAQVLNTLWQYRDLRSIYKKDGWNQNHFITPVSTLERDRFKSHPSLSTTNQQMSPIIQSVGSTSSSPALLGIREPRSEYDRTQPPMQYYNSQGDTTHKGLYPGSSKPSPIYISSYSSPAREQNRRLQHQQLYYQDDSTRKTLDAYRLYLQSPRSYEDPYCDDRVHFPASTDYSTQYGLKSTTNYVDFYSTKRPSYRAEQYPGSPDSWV

binding [1]: binds
binding [2]: binds
B1: MLC phosphatase (MYPT1) (protein, UniProt Q9DBR7 1-1029)
chain: MKMADAKQKRNEQLKRWIGSETDLEPPVVKRQKTKVKFDDGAVFLAACSSGDTDEVLKLLHRGADINYANVDGLTALHQACIDDNVDMVKFLVENGANINQPDNEGWIPLHAAASCGYLDIAEFLIGQGAHVGAVNSEGDTPLDIAEEEAMEELLQNEVNRQGVDIEAARKEEERVMLRDARQWLNSGHISDVRHAKSGGTALHVAAAKGYTEVLKLLIQAGYDVNIKDYDGWTPLHAAAHWGKEEACRILVDNLCDMETVNKVGQTAFDVADEDILGYLEELQKKQTLLHSEKRDKKSPLIESTANMENNQPQKAFKNKETLIIEPEKNASRIESLEHEKADEEEEGKKDESSCSSEEDEEDDSESEAETDKTKPMASVSNAHTSSTQAAPAAVTAPTLSSNQGTPTSPVKKFPISTTKISPKEEERKDESPASWRLGLRKTGSYGALAEISASKEAQKEKDTAGVMRSASSPRLSSSLDNKEKEKDNKGTRLAYVTPTIPRRLASTSDIEEKENRESSSLRTSSSYTRRKWEDDLKKNSSINEGSTYHRSCSFGRRQDDLISCSVPSTTSTPTVTSAAGLQRSLPSSTSTAAKTPPGSSSAGTQSSTSNRLWAEDSTEKEKDSAPTAVTIPVAPTVVNAAAPSTTTLTTTTAGTVSEVRERRRSYLTPVRDEESESQRKARSRQARQSRRSTQGVTLTDLQEAEKTIGRSRSTRTREQENEEKEKEEKEKQDKEKQEEKKESEASREDEYKQKYSRTYDETYTRYRPVSTSSSSAPSSSSLSTLGSTLYASSQLNRPNSLVGITSAYSRGLAKENEREGEKKEEEKEGEDKSQPKSIRERRRPREKRRSTGVSFWTQDSDENEQERQSDTEDGSSKRETQTDSVSRYDSSSTSSSDRYDSLLGRSASYSYLEDRKPYSSRLEKDDSTDFKKLYEQILAENEKLKAQLHDTNMELTDLKLQLEKATQRQERFADRSQLEMEKRERRALERRISEMEEELKMLPDLKADNQRLKDENGALIRVISKLSK
